# Source: PubChem BioAssay (NCI)
#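 96-well plates; 48 h exposure; 5 concentrations. Endpoints by linear interpolation between flanking doses. Not reached: highest tested concentration assigned. Abbreviation: GI50, concentration required for 50% inhibition of growth. TGI is the concentration that stops growth completely.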 Peptide text beside a SMILES is read from it. * marks the point of attachment. Cbz = O=C(OCc1ccccc1)*; CH2Cl = ClC*
# Test system: NCI-H322M lung
# Test: inhibition of tumour cell growth, NCI panel, 48 h
SMILES,TGI [µM],GI50 [µM]
CCOc1ccc(NC(=O)C(=O)CC(=O)c2c(C)n([O-])c3ccccc3[n+]2=O)cc1,> 100,
Cn1nc(C(=O)N2CC(CCl)c3c2cc(N)c2ccccc32)cc1NC(=O)Nc1cc(C(=O)N2CC(CCl)c3c2cc(N)c2ccccc32)nn1C (stereo unspecified),73.2,
O=C(c1ccccc1)c1cc2ccccc2o1,> 100,> 100
CN1C(=O)N(C)C2C1NN=c1s/c(=C\c3ccc(Cl)cc3Cl)c(=O)n12 (stereo unspecified),> 100,0.664
C#C[C@]1(O)CCC2C3CCc4cc(O)ccc4C3CC[C@@]21C (stereo partly specified),63.9,10.1
COc1ccc2c(c1)C(=O)c1c-2c(N2CCN(C(=O)CNCCNCCO)CC2)nc2ccccc12,30.3,13.5
CC1CCC(=O)C(C(=O)CC2CC(=O)N(C)C(=O)C2)C1 (stereo unspecified),> 100,
CCC[CH2][Sn]([Cl])([CH2]CCC)[CH2]CCC,0.251,0.115
O=C(O)C(NCc1ccccc1)C(NCc1ccccc1)C(=O)O (stereo unspecified),> 100,
CCOC(=O)C(=[N+]=[N-])[Si](C)(C)C,30.8,
COc1ccc2cc(/C=N/NC(=O)Nc3ccccc3)ccc2c1,> 100,
COc1ccc(/C=C2/N=C(c3ccccc3)N(c3c(C)n(C)n(-c4ccccc4)c3=O)C2=O)cc1OC,> 100,11.3
[N-]=[N+]=N[C@H]1C[C@@H](CO)O[C@H]1n1cnc2c(N)ncnc21,> 100,
CCOc1ccccc1NC(=O)C(=O)CC(=O)c1sc(Nc2nnc(-c3ccc(Cl)c(Cl)c3)o2)nc1C,> 100,
CN=C1CC2c3cc(OC)c(OC)cc3CCN2C2=C1C(=O)CC(C)(C)C2 (stereo unspecified),> 100,
C=C(Cl)C(Br)(CCl)CCC(Br)C(C)(C)Cl (stereo unspecified),19.7,
O=C1Nc2ccccc2/C1=N\[O-].O=C1Nc2ccccc2/C1=N\[O-].[Cu+2],> 100,> 100
CC(C)CC(NC(=O)OCc1ccccc1)C(=O)NC(Cc1ccccc1)C(=O)CCl (stereo not drawn) (Cbz-Leu-Phe-CH2Cl; configuration not given here),> 100,
COC(=O)C(Cc1c[nH]c2ccccc12)NP(=O)(O)OCC1OC(n2cc(I)c(=O)[nH]c2=O)CC1O (stereo unspecified),> 100,
Cn1cc(-c2csc(-c3c[nH]c4ccc(F)cc34)n2)c2cnccc21,3.2,1.79
O=C(Nc1nc(=S)c2c(ncn2CCOC(=O)c2ccccc2)[nH]1)c1ccccc1,> 100,
COc1ccc(-[n+]2nc(S(=O)(=O)O)c(/C=C/c3ccc(N(C)C)cc3)cc2C#N)cc1,> 100,
COc1cccc(C2=NC(C(C)C)CO2)c1 (stereo unspecified),> 100,
O=C(O)Cc1cc(Cl)ccc1O,> 100,
COc1ccc2[nH]cc(C3(c4c[nH]c5ccc(OC)cc45)C(=O)Nc4ccc(F)cc43)c2c1,15.4,2.75

SMILES,TGI [µM],GI50 [µM]
COc1ccc(P2(=S)OC(C)(C)C(C)(C)O2)cc1,> 100,
CN(CC(=O)O)c1ncc2c(n1)CCCC2,> 100,
CCOC(=O)CC[C@H](NC(=O)[C@H](N)Cc1ccc(N(CCCl)CCCl)cc1)C(=O)OCC,> 70.3,
Cn1c(=O)n(C2(C)C[Se]C2)c2ccccc21,> 100,
CC1c2c(Cl)nc3ccccc3c2Oc2c1c(Cl)nc1ccccc21,> 100,
CC(=O)OC12C=CC(=O)N1c1ccccc1C(=O)O2 (stereo unspecified),> 100,
Cc1nn(-c2ccccc2)c2c1C(c1ccc(Cl)cc1)NC(=S)N2 (stereo unspecified),> 100,
CN(C)CC[PH+](c1ccccc1)c1ccccc1.CN(C)CC[PH+](c1ccccc1)c1ccccc1.[Cl-].[Pd+2],> 100,> 100
CCOC1OC(=O)c2cc3ccc4c(c3c(-c3ccc5c(c3)OCO5)c21)OCO4 (stereo unspecified),97.6,
COc1cc(NS(C)(=O)=O)ccc1Nc1c2ccccc2nc2c1[nH]c1ccc(NC3OC(CO)C(O)C(O)C3O)cc12 (stereo unspecified),2.41,
CC(=O)Oc1c2c(c(O)c3ccccc13)C(n1cnc3c(ncn3C3OC(CO)C4OC(C)(C)OC43)c1=N)CCC2 (stereo unspecified),34.6,
O=c1[nH]nc(Cc2ccccc2)n1/N=C/c1ccccc1O,> 100,
Cc1ccc(NC(=O)CCc2cc(C(C)(C)C)nc(=S)[nH]2)cc1C,> 100,
CC(O)C1(CNc2cc(Cl)nc(N)n2)CCC1 (stereo unspecified),> 100,
O=Cc1[nH]c(=O)[nH]c(=O)c1C(=O)O,> 100,
Cc1cc(S(=O)(=O)Nc2n[nH]c(N)n2)c(SCC(=O)O)cc1Cl,> 10,
S=C(S)NCNC(=S)S.[Zn+2],> 100,
Cc1cc2oc(=N)c(C#N)c(C)c2cc1C,> 100,
CC(=O)Oc1ccc2c(C)cc(=O)oc2c1OC(C)=O,81.2,
CN(C)C1(N(C)C)Oc2c(c(=O)n(C)c(=O)n2C)C(c2ccccc2)C1(F)F (stereo unspecified),> 100,
CN1CCN(C(=S)N2CCN(C)CC2)CC1,> 100,
C=C(C)[C@@H]1CC[C@]2(C(=O)NC3CCCCC3)CC[C@]3(C)[C@H](CC[C@@H]4[C@@]5(C)CCCNC(C)(C)[C@@H]5CC[C@]43C)[C@@H]12,3.47,1.74
NCc1ccccc1-c1c2nc(c(-c3ccccc3CN)c3ccc([nH]3)c(-c3ccccc3CN)c3nc(c(-c4ccccc4CN)c4ccc1[nH]4)C=C3)C=C2,36.5,
CCCCCCOC(=O)/C=C/[C@]1(CO)C/C(=C/CC(C(C)C)C(C)C)C(=O)O1,23.9,
O=C(Nc1nc(C23CC4CC(CC(C4)C2)C3)cs1)c1cc2ccc(O)cc2oc1=O,54.8,
